Experimental data as given in paper PMC3201865 (Nucleic Acids Research, 2011).

Target: T1, recombinant full-length UHRF1 (human, UniProt Q96T88 1-793)
T1 sequence: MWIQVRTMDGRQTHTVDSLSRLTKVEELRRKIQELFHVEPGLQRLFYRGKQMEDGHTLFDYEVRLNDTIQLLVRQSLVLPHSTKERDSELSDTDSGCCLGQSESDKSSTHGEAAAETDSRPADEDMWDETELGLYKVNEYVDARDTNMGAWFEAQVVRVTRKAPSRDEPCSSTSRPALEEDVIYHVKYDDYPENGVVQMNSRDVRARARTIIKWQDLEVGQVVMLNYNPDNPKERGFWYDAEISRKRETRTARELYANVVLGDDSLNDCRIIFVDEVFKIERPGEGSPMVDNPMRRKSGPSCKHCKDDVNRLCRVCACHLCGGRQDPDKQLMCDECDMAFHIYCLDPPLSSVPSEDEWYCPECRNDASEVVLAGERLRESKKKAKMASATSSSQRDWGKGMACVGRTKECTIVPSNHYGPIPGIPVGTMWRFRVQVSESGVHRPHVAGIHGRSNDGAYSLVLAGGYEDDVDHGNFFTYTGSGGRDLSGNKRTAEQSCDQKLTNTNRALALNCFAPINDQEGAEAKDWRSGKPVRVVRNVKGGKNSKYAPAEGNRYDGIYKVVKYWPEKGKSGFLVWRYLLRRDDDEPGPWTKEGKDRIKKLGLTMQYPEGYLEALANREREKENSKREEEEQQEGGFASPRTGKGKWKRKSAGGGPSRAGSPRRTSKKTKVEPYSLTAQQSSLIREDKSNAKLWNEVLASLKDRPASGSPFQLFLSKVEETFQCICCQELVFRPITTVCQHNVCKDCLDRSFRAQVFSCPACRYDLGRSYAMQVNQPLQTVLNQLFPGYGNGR
Experiment: pull-down

B1: GST-TRAF domain of USP7 ([…]) (domain or fragment)
chain: MNHQQQQQQQKAGEQQLSEPEDMEMEAGDTDDPPRITQNPVINGNVALSDGHNTAEEDMED[letters of about 150 residues left out]DSKKHTGYVG
binding result: binds
